Assay results taken from PubChem BioAssay AID1508624 (National Center for Advancing Translational Sciences (NCATS), 2021).
Hit rate of the full screen: of about 48,000 compounds, about 120 (0.25%) were called active. About 4% were inconclusive and are not listed. The call rests on the fitted dose curve; in most records, active means well fitted activation curve with a large enough effect; inconclusive means small, poorly fitted or top-dose-only effect, or another doubt; inactive means no such curve, though single readings can be large or run the other way. Some of the results follow.

Experiment: Primary qHTS for Identification of Small Molecule Activators of Huntingtin-Antisense Promoter Activity; further: nearly all actives have a fitted effect of over 55% in size
Settings: HEK293 HTT-AS promoter firefly luciferase reporter, 24 h; series mostly up to 57.5 µM; activity change, positive = activation: at the top concentration
Outline: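 Quantitative HTS used concentration series of up to 57.5 uM final on HEK293 luciferase reporter cells, 24 h at 37 degrees C. Readout was Dual-Glo firefly luminescence.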

Activity change, positive = activation, inactive:
Cc1cc(C)c2oc(C(=O)Nc3ccc(S(=O)(=O)N4CCCCCC4)cc3)cc(=O)c2c1 -4.65%
O=C(Nc1ccc(S(=O)(=O)N2CCCCC2c2cccnc2)cc1)c1ccc(Br)cc1 (stereo unspecified) -61.4%
Cc1cccc(NC(=O)COC(=O)CCCC2=NS(=O)(=O)c3ccccc3N2)c1 -6.84%
COc1cccc(NC(=O)Cn2c(=O)cc(C)c3c(C)nn(-c4cccc(F)c4)c32)c1 16.2%
Oc1cccc(-c2nc(N3CCOCC3)c3oc4ncccc4c3n2)c1 -19.2% [at 116 µM, percent change from vehicle, -100% = no light]
CC1CCCCN1C(=O)Cn1c(=O)n(-c2ccc(Cl)cc2)c(=O)c2c3c(sc21)CCC3 (stereo unspecified) -21.5%
CCN1CCN(C(c2ccc(OC)cc2)c2c(O)cc(C)n(Cc3ccco3)c2=O)CC1 (stereo unspecified) 13.4%
COc1ccc(CNC(=O)c2ccc(NC(=O)N3CC4CCCN4c4ccccc43)cc2)cc1 (stereo unspecified) -22.2%
COc1cccc(NC(=O)C2CCN(S(=O)(=O)c3cccc4nonc34)CC2)c1 -12.5%
Cc1ccc(-n2ncc(C(=O)NCCc3ccccc3)c2C2CCN(C(=O)OC(C)(C)C)CC2)c(C)c1 -18.3%
CCOc1cc2c(c(F)c1OCC)C(=N)N(CC(=O)c1cc(N3CCOCC3)c(OC)c(C(C)(C)C)c1)C2 -30.5%
COC(=O)c1ccc(NC(=O)CSc2nc(C)cc(C)c2C(=O)Nc2ccccc2)cc1 -22.6%
Cc1nc(-c2ccc(S(=O)(=O)Nc3ccc(C#N)cc3)cc2)co1 -31.2%
COc1cc(NS(=O)(=O)c2cnc(N)nc2)cc(OC)c1 -13.3%
CCOc1ccc(/C=C/C(=O)Nc2sc3c(c2C(=O)OC)C(C(=O)OC)CC3)cc1 (stereo unspecified) -9.7%
COc1cc(C(=O)OCc2cc(=O)n3nc(C4CCCCC4)sc3n2)cc(OC)c1OC -6.19%
CCOC(=O)c1cc(C)n(CC2CCC(C(=O)Nc3ccc(C(C)=O)cc3)CC2)c1C (stereo unspecified) -25.3%
COc1cc2cc(CNc3ccccc3)c(=O)n(CC(=O)Nc3ccccc3)c2cc1OC -9.73%
COc1ccc(N2CCN(C(=O)c3cccc(-n4c(C)nc5cccnc54)c3)CC2)cc1 -21.9%
CCc1cccc(NC(=O)c2cn3c4c(ccc(Cl)c4c2=O)OC(C)C3)c1 (stereo unspecified) -15.5%
CCCNS(=O)(=O)c1ccc2nc(NC(=O)c3ccc(F)cc3)sc2c1 -11.6%
O=C(NCCC1=CCCCC1)c1ccc2c(c1)N(Cc1ccccc1F)C(=O)c1ccccc1S2=O (stereo unspecified) -9.15%
CCc1cccc(-n2c(=O)c3cccnc3n2CC(=O)NCc2ccccc2)c1 -18%
CCn1nnc2cc(C(=O)Nc3ccc(Cl)cc3C)ccc21 -0.614%
COc1cccc(-c2cn3c(n2)sc2cc(C(=O)NCCCc4ccccc4)ccc23)c1 18.2%
CSc1ccc(CNC(=O)C2CCCN(S(=O)(=O)N(C)c3ccc(F)cc3)C2)cc1 (stereo unspecified) -65.1%
